Target: anti-EGFR GA201 mAb (human IgG1) (human)
Assay: SPR; ProteOn XPR36; antibodies at 50 μg/mL immobilised on a GLC sensor chip by amine coupling; serial dilutions of FcγRIIIA isoforms in PBS, pH 7.4, 0.005% Tween 20, 3 mM EDTA passed over; KD from steady-state equilibrium binding
Conditions: both partners purified

Kd: 0.165 µM
B1: recombinant human FcγRIIIA, high-affinity isoform 158V (receptor)
chain: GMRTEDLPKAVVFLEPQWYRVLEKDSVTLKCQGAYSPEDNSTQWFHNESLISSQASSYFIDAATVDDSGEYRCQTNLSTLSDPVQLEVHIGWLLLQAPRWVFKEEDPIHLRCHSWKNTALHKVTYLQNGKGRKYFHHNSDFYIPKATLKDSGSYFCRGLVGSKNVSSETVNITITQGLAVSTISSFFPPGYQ
modifications: Natural V158 allotype (precursor V176, historical offset 18). Soluble ectodomain assumed because the recombinant receptor was used as SPR analyte; limits are not printed and are taken from the …

Source: PMC4913924 (PLoS ONE, 2016)
